About 9,900 (2.8%) of roughly 350,000 compounds were called active. This list was built around the results that the source calls inconclusive (neither active nor inactive); the mix of calls is not that of the screen. Calls follow the shape of the dose curve; as a rule, active = well fitted activation curve with a large enough effect; inconclusive = small, poorly fitted or top-dose-only effect; inactive = no such curve, though single readings can be large or run the other way. Potencies of inconclusive entries are left out as doubtful fits.
Test: A quantitative high throughput screen for small molecules that induce DNA re-replication in MCF 10a normal breast cells. Also: nearly all actives have a fitted effect of over 50% in size.
Conditions: MCF 10A DNA re-replication, Hoechst nuclear intensity, 48 h; series mostly up to 46.1 µM
Potency is read from the fitted curve at half-maximal effect; tags tell the direction and shape of the fitted curve.

Row | SMILES | Potency
1 | COCCNc1cc(C)nc2cc(-c3ccc(C)cc3)nn12 | inconclusive [activator, single point]
2 | NS(=O)(=O)c1ccc(Nc2nc(-c3ccccc3)cs2)cc1 | inconclusive [activator, partial curve]
3 | CC(Nc1nc(-c2ccccc2F)nc2ccccc12)c1ccccc1 (stereo not given) | inconclusive [activator, single point]
4 | COc1ccc(-c2cc(=O)oc3c(C)c(OCC(=O)Nc4cccnc4)ccc23)cc1 | inconclusive [activator, single point]
5 | O=C(COC(=O)c1c2c(nc3ccccc13)/C(=C/c1ccco1)CC2)NC1CCCC1 | active: 7.31 µM
6 | C=C1CCC[C@]2(C)C[C@H]3OC(=O)C(CNC(C)(CO)CO)[C@H]3CC12 (stereo not given in full) | inconclusive [activator, single point]
7 | CC1CCCN(CC(=O)N2c3ccccc3Sc3ccccc32)C1 (stereo not given) | inconclusive [activator, single point]
8 | Cc1nn(-c2ccc(N3CCCCC3)nn2)c(C)c1CCC(=O)Nc1cc(F)ccc1F | inactive
9 | COc1ccc(Cn2c3ccc(OC)cc3c3nc4ccccc4nc32)cc1 | inconclusive [activator, partial curve, poor fit]
10 | CCn1c(C(=O)N2CCc3ccccc3C2)cc2oc3ccccc3c21 | active: 16.4 µM
11 | COc1ccc(NC(=O)c2ccc(CN3CCN(c4ccccc4)CC3)cc2)cc1 | inconclusive [activator, partial curve, poor fit]
12 | COc1cccc(NC(=O)CN(c2ccccc2OC)S(=O)(=O)c2cccs2)c1 | inactive
13 | CN1c2ccccc2C(C)(C)[C@]12C=Cc1cc(O)ccc1O2 | inconclusive [activator, single point]
14 | Cc1ccc(S(=O)(=O)N(CCO)Cc2ccccc2)cc1 | inconclusive [activator, single point]
15 | COc1ccc(N2CCN(C3CCCN(Cc4ccccc4OCCO)C3)CC2)cc1 (stereo not given) | inconclusive [activator, single point]
16 | COc1ccc(-c2nc(CN3CCC(C(=O)NC4CCN(Cc5ccccc5)CC4)CC3)c(C)o2)cc1OC | inconclusive [activator, partial curve, poor fit]
17 | C=CCSC1=NC(=O)/C(=C/c2cccs2)S1 | active: 18.4 µM
18 | COc1ccc(OC)c(C(=O)NC(CC(N)=O)c2ccc(N3CCN(c4ccccn4)CC3)c([N+](=O)[O-])c2)c1 (stereo not given) | inactive
19 | Cc1ccc(S(=O)(=O)N(C)Cc2ccc(C(=O)N/N=C/c3ccc(OC(F)F)cc3OC(F)F)cc2)cc1 | inactive
20 | CCc1ccc(S(=O)(=O)NCc2csc(C)n2)cc1 | inactive
21 | COc1cc(CN2CCC(CO)(Cc3cccc(C(F)(F)F)c3)CC2)ccc1F | inconclusive [activator, single point]
22 | Oc1ccccc1-c1nc2c3ccccc3c3ccccc3c2[nH]1 | active: 18.4 µM
23 | CCc1c(C)nc(Nc2nc(C)c3cc(OC)ccc3n2)[nH]c1=O | inconclusive [activator, partial curve, poor fit]
24 | CC(C)c1ccc(N(CC(=O)NCc2ccc(F)cc2)C(=O)c2snc(C(N)=O)c2N)cc1 | inconclusive [activator, single point]

Row | SMILES | Potency
25 | Cc1ccc(C(=O)NCc2ccco2)cc1 | inconclusive [activator, single point]
26 | Cc1ccc(/C=C/C(=O)NC2CCCCCCC2)o1 | inconclusive [activator, single point]
27 | CCc1nnc(NC(=O)CN2CCN(Cc3ccc(C)cc3)CC2)s1 | active: 0.92 µM
28 | COc1ccc(Cl)cc1NC(=O)C1COc2ccccc2O1 (stereo not given) | inactive
29 | COc1ccc(OC)c(C2=NOC(C(=O)NCc3cccnc3)C2)c1 (stereo not given) | inconclusive [activator, single point]
30 | CCN(c1cccc(C)c1)S(=O)(=O)c1cc2c3c(c1)CCC(=O)N3CCC2 | inconclusive [activator, single point]
31 | C=CCNC(=S)Nc1sc2c(c1C(=O)OCC)CCN(C(=O)OCC)C2 | inconclusive [activator, single point]
32 | C1CCc2c(nnc3c2-c2nonc2CC3)C1 | inconclusive [activator, single point]
33 | COc1ccc(C2C3=C(CC(C)(C)CC3=O)N(C)C3=C2C(=O)CC(C)(C)C3)cc1 | inactive
34 | Cc1cc(NC(=O)CSc2nc3c(cc2C#N)CCCC3)no1 | inconclusive [activator, single point]
35 | O=C(Cc1cccc2ccccc12)N/N=C/c1ccncc1 | inactive
36 | O=C(C[C@H]1C[C@H](C(=O)N2CCCCC2)[C@@]2(CCc3ccccc3)c3[nH]c4cc(-c5ccco5)ccc4c3CCN2C1=O)NCCN1CCOCC1 | active: 23.1 µM
37 | Nc1ncnc(Oc2cccc(C(F)(F)F)c2)c1[N+](=O)[O-] | inconclusive [activator, single point]
38 | Cc1ccc(C(=O)n2nc(C#N)c(C#N)c2N)cc1 | inactive
39 | CCOC(=O)C1=C(c2ccccc2)c2ccccc2N(S(=O)(=O)C(F)(F)F)C1C(=O)OCC (stereo not given) | inconclusive [activator, single point]
40 | CC(C)CSc1nc(N2CCOCC2)c2c(c1C#N)CC(C)(C)SC2 | inconclusive [activator, partial curve, poor fit]
41 | COc1ccc(C(=O)c2ccc(OC)c(OC)c2)cc1 | inactive
42 | Cc1ccc(NC(=O)CN(C)C(=O)c2ccc(Cl)c([N+](=O)[O-])c2)cc1 | inactive
43 | Cc1cc(O)c(C(C)C)cc1N=Cc1ccc([N+](=O)[O-])cc1 | active: 18.4 µM
44 | COc1ccccc1/C=N/NC(=O)c1cc2c(ccc3ccccc32)o1 | inconclusive [activator, single point]
45 | CCN1CCN(CCCN(Cc2cccs2)C(=S)Nc2ccccc2C)CC1 | inconclusive [activator, partial curve, poor fit]
46 | COc1ccc(-c2nnc(Nc3nc4c(OC)cccc4s3)o2)c(OC)c1 | inactive
47 | O=C1C(=O)N(Cc2cccc([N+](=O)[O-])c2)c2ccccc21 | inconclusive [activator, single point]
48 | O=c1cc(O)nc(SC23CC4CC(CC(C4)C2)C3)[nH]1 | inconclusive [activator, single point]

Row | SMILES | Potency
49 | CCOC(=O)c1cc(CC)sc1NC(=O)CN1CCN(C(=O)c2ccco2)CC1 | inconclusive [activator, full curve, poor fit]
50 | CN[C@H](C(=O)NC[C@H]1O[C@@H](n2cnc3c(N)ncnc32)[C@H](O)[C@@H]1O)[C@@H](C)OCc1ccccc1 | inactive
51 | O=C(Nc1ccc(S(=O)(=O)Nc2ccccn2)cc1)c1ccc(Cl)cc1Cl | inactive
52 | COc1ccc(C(=O)NCc2ccccc2)cc1S(=O)(=O)N1CCCc2ccccc21 | inconclusive [activator, full curve, poor fit]
53 | CCn1ccnc1CN1CCc2c([nH]c3ccccc23)C1C1CCCCC1 (stereo not given) | inactive
54 | CN(CC(=O)Nc1cccc(F)c1)C(=O)CN1C(=O)NC2(CCCCC2)C1=O | inactive
55 | CC(=O)Nc1ccc(NC(=O)CSc2nnc(NC(=O)c3cccc(F)c3)s2)cc1 | inactive
56 | COc1ccc(NCC(=O)Nc2ccc(C#N)cc2)cc1Cl | inactive
57 | O=C(CSc1nc(-c2ccccc2)cc(C(F)(F)F)n1)NCc1cccs1 | active: 6.51 µM
58 | O=C(c1ccco1)N1CCN(C(=S)Nc2ccccc2C(F)(F)F)CC1 | inactive
59 | CN1CCN(C(=O)c2ccc(COc3cc(Cl)ccc3Cl)o2)CC1 | inconclusive [activator, partial curve]
60 | CC(C)CN(C(=O)COC(=O)/C=C/c1ccc(Cl)c(Cl)c1)c1c(N)n(Cc2ccccc2)c(=O)[nH]c1=O | inconclusive [activator, partial curve, poor fit]
61 | CCCCn1c(N)c(N(CCC(C)C)C(=O)c2ccc(-c3ccc([N+](=O)[O-])cc3)o2)c(=O)[nH]c1=O | inconclusive [activator, single point]
62 | O=C(N/N=C/c1ccc(Sc2nc3ccccc3[nH]2)o1)c1ccncc1 | inactive
63 | CC(C)Cn1nc(NC(=O)C(C)(C)C)c2cc3ccccc3nc21 | active: 23.1 µM
64 | CCN(CC)CCn1c(=S)[nH]c2ccccc2c1=O | inactive
65 | Cc1nn(C)c(C(=O)Nc2c(C)nn(Cc3c(F)c(F)c(F)c(F)c3F)c2C)c1Br | inactive
66 | Cc1ccc(NC(=O)C2=C(c3ccccc3)S(=O)(=O)CCS2(=O)=O)cc1 | inconclusive [activator, single point]
67 | N#Cc1c(N)n(CCNC(=O)c2cccs2)c2nc3ccccc3nc12 | inconclusive [activator, single point]
68 | CN1C(=O)/C(=C\c2ccccc2F)Sc2ccc(C(=O)NC3CCN(Cc4ccccc4)CC3)cc21 | inconclusive [activator, single point]
69 | COc1ccc(-c2noc(CCCC(=O)N3CCOCC3)n2)cc1 | inconclusive [activator, single point]
70 | CCCc1cc(NCc2ccccn2)n2nc(C)c(-c3ccccc3)c2n1 | inconclusive [activator, single point]

Source: PubChem BioAssay AID624296 (National Center for Advancing Translational Sciences (NCATS), 2012)
